These results are taken from the supplement of paper PMC7125110.

± gives the standard error. This sample is rich in variants without activity.

First the molecules themselves.
B1: glmS ribozyme (parent)
chain: AUAAAAGCGCCAGAACUACAGAAAUGUAGUUGACGAGGAGGAGGUUUAUCGAAUUUUCGGCGGAUGCCUCCAAA

Details in all cases: with glucosamine-6-phosphate
In data set [1] the parent is B1. The experiment in a line: self-cleavage kobs at 40 uM GlcN6P; higher = faster cleavage; RNA array. Put shortly: (§1)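 Tracking of barcoded ribozyme variants used a hybridised Cy3 probe at 37 °C, after in situ transcription by E. coli RNA polymerase on sequenced MiSeq chips. The flowed solution held 40 μM to 10 mM glucosamine-6-phosphate in HEPES/KCl/Mg(OAc)2 buffer, and imaging ran over ~14 h. kobs was taken from exponential decay fits of normalised per-tile medians, and kcat and KM from weighted Michaelis–Menten fits.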

Variants of B1 are the subject of data set [2]. The experiment in a line: self-cleavage kobs at 640 uM GlcN6P; higher = faster cleavage; RNA array. The gist of the method:
as §1

Data set [3] covers variants of B1. The experiment in a line: self-cleavage kobs at 160 uM GlcN6P; higher = faster cleavage; RNA array. The gist of the method:
as §1

Data set [4] covers variants of B1. The experiment in a line: self-cleavage kobs at 2500 uM GlcN6P; higher = faster cleavage; RNA array. The gist of the method:
as §1

In data set [5] the parent is B1. Description: self-cleavage kobs at 10000 uM GlcN6P; higher = faster cleavage; RNA array. Put shortly: as §1

On to G44C C67U, for which the “self-cleavage kobs at 40 uM GlcN6P” value with glucosamine-6-phosphate [1] was determined as 5.1e-05 ± 1.3e-05 s⁻¹. In addition, the “self-cleavage kobs at 640 uM GlcN6P” value with glucosamine-6-phosphate [2] was 0.000532 ± 0.00011 s⁻¹. For the same variant, in the data set with glucosamine-6-phosphate [3], the “self-cleavage kobs at 160 uM GlcN6P” value was determined as 0.000153 ± 3.2e-05 s⁻¹. Further, the “self-cleavage kobs at 2500 uM GlcN6P” value with glucosamine-6-phosphate [4] was 0.00109 ± 0.00024 s⁻¹. Further, in the data set with glucosamine-6-phosphate [5], the “self-cleavage kobs at 10000 uM GlcN6P” value was determined as 0.00168 ± 0.0003 s⁻¹.
For G44A G59U, in that order: below 1e-05 s⁻¹, below 1e-05 s⁻¹, below 1e-05 s⁻¹, below 1e-05 s⁻¹ and below 1e-05 s⁻¹.
U45A C71U: the “self-cleavage kobs at 40 uM GlcN6P” value with glucosamine-6-phosphate [1] turned out to be 0.00126 ± 0.00019 s⁻¹. In addition, in the data set with glucosamine-6-phosphate [2], the “self-cleavage kobs at 640 uM GlcN6P” value turned out to be 0.012 ± 0.0029 s⁻¹. Further, the “self-cleavage kobs at 160 uM GlcN6P” value with glucosamine-6-phosphate [3] is 0.00507 ± 0.00093 s⁻¹. Moreover, the “self-cleavage kobs at 10000 uM GlcN6P” value with glucosamine-6-phosphate [5] came to 0.0584 ± 0.019 s⁻¹.
Turning to U45A C71A, in the data set with glucosamine-6-phosphate [1], the “self-cleavage kobs at 40 uM GlcN6P” value was 0.00019 ± 3.7e-05 s⁻¹. For the same variant, the “self-cleavage kobs at 640 uM GlcN6P” value in the data set with glucosamine-6-phosphate [2] was 0.000907 ± 0.00022 s⁻¹. Moreover, in the data set with glucosamine-6-phosphate [3], the “self-cleavage kobs at 160 uM GlcN6P” value was determined as 0.000518 ± 0.00016 s⁻¹.
G44U U49A: the “self-cleavage kobs at 40 uM GlcN6P” value in the data set with glucosamine-6-phosphate [1] is below 1e-05 s⁻¹. Moreover, the “self-cleavage kobs at 640 uM GlcN6P” value with glucosamine-6-phosphate [2] was below 1e-05 s⁻¹. In the data set with glucosamine-6-phosphate [3], the “self-cleavage kobs at 160 uM GlcN6P” value was below 1e-05 s⁻¹. For the same variant, the “self-cleavage kobs at 2500 uM GlcN6P” value with glucosamine-6-phosphate [4] was below 1e-05 s⁻¹. For the same variant, in the data set with glucosamine-6-phosphate [5], the “self-cleavage kobs at 10000 uM GlcN6P” value was below 1e-05 s⁻¹.
For G44U A52G A53U, the “self-cleavage kobs at 40 uM GlcN6P” value with glucosamine-6-phosphate [1] was below 1e-05 s⁻¹. Further, the “self-cleavage kobs at 10000 uM GlcN6P” value in the data set with glucosamine-6-phosphate [5] was below 1e-05 s⁻¹.
Take A48C C61U: the “self-cleavage kobs at 40 uM GlcN6P” value with glucosamine-6-phosphate [1] is below 1e-05 s⁻¹. In addition, the “self-cleavage kobs at 640 uM GlcN6P” value with glucosamine-6-phosphate [2] is below 1e-05 s⁻¹. Further, the “self-cleavage kobs at 160 uM GlcN6P” value with glucosamine-6-phosphate [3] is below 1e-05 s⁻¹. Besides, in the data set with glucosamine-6-phosphate [4], the “self-cleavage kobs at 2500 uM GlcN6P” value was below 1e-05 s⁻¹. In addition, the “self-cleavage kobs at 10000 uM GlcN6P” value in the data set with glucosamine-6-phosphate [5] was below 1e-05 s⁻¹.
Consider A48C C58A, for which the “self-cleavage kobs at 40 uM GlcN6P” value with glucosamine-6-phosphate [1] is below 1e-05 s⁻¹. In addition, the “self-cleavage kobs at 640 uM GlcN6P” value with glucosamine-6-phosphate [2] is below 1e-05 s⁻¹. Further, the “self-cleavage kobs at 160 uM GlcN6P” value with glucosamine-6-phosphate [3] is below 1e-05 s⁻¹.
For the variant A48C C67G, the “self-cleavage kobs at 40 uM GlcN6P” value with glucosamine-6-phosphate [1] is below 1e-05 s⁻¹. For the same variant, the “self-cleavage kobs at 160 uM GlcN6P” value in the data set with glucosamine-6-phosphate [3] is below 1e-05 s⁻¹.
For A48U A52C U65A, the “self-cleavage kobs at 40 uM GlcN6P” value in the data set with glucosamine-6-phosphate [1] is below 1e-05 s⁻¹. The “self-cleavage kobs at 10000 uM GlcN6P” value with glucosamine-6-phosphate [5] is below 1e-05 s⁻¹.
For the variant G44U A52G, the “self-cleavage kobs at 40 uM GlcN6P” value with glucosamine-6-phosphate [1] is below 1e-05 s⁻¹.
On to G44A G63A C71U, for which the “self-cleavage kobs at 40 uM GlcN6P” value with glucosamine-6-phosphate [1] was below 1e-05 s⁻¹. Further, the “self-cleavage kobs at 10000 uM GlcN6P” value with glucosamine-6-phosphate [5] was below 1e-05 s⁻¹.
Take A48G U49C: the “self-cleavage kobs at 40 uM GlcN6P” value in the data set with glucosamine-6-phosphate [1] was below 1e-05 s⁻¹.
As for G44A G51A, the “self-cleavage kobs at 40 uM GlcN6P” value with glucosamine-6-phosphate [1] was below 1e-05 s⁻¹. Further, the “self-cleavage kobs at 640 uM GlcN6P” value with glucosamine-6-phosphate [2] is below 1e-05 s⁻¹. For the same variant, the “self-cleavage kobs at 160 uM GlcN6P” value with glucosamine-6-phosphate [3] is below 1e-05 s⁻¹. In addition, in the data set with glucosamine-6-phosphate [4], the “self-cleavage kobs at 2500 uM GlcN6P” value was below 1e-05 s⁻¹. Moreover, the “self-cleavage kobs at 10000 uM GlcN6P” value with glucosamine-6-phosphate [5] is below 1e-05 s⁻¹.
As to U47C G60U, the “self-cleavage kobs at 40 uM GlcN6P” value with glucosamine-6-phosphate [1] was below 1e-05 s⁻¹.
On the same count and under the same terms, for U45G U65G the value was 7.22e-05 ± 2.1e-05 s⁻¹.
U46C G63U: the “self-cleavage kobs at 40 uM GlcN6P” value with glucosamine-6-phosphate [1] is below 1e-05 s⁻¹. The “self-cleavage kobs at 10000 uM GlcN6P” value with glucosamine-6-phosphate [5] was below 1e-05 s⁻¹.
In the case of U46C G63C, in the data set with glucosamine-6-phosphate [1], the “self-cleavage kobs at 40 uM GlcN6P” value was below 1e-05 s⁻¹. The “self-cleavage kobs at 640 uM GlcN6P” value with glucosamine-6-phosphate [2] was below 1e-05 s⁻¹. The “self-cleavage kobs at 2500 uM GlcN6P” value in the data set with glucosamine-6-phosphate [4] is below 1e-05 s⁻¹.
As to G44U U65C, the “self-cleavage kobs at 40 uM GlcN6P” value in the data set with glucosamine-6-phosphate [1] is below 1e-05 s⁻¹. Besides, in the data set with glucosamine-6-phosphate [2], the “self-cleavage kobs at 640 uM GlcN6P” value is below 1e-05 s⁻¹. The “self-cleavage kobs at 160 uM GlcN6P” value with glucosamine-6-phosphate [3] was below 1e-05 s⁻¹. In the data set with glucosamine-6-phosphate [4], the “self-cleavage kobs at 2500 uM GlcN6P” value was below 1e-05 s⁻¹. In addition, the “self-cleavage kobs at 10000 uM GlcN6P” value with glucosamine-6-phosphate [5] is below 1e-05 s⁻¹.
Take U45G G63A: the “self-cleavage kobs at 40 uM GlcN6P” value with glucosamine-6-phosphate [1] is below 1e-05 s⁻¹. For the same variant, the “self-cleavage kobs at 640 uM GlcN6P” value in the data set with glucosamine-6-phosphate [2] was below 1e-05 s⁻¹. In addition, in the data set with glucosamine-6-phosphate [3], the “self-cleavage kobs at 160 uM GlcN6P” value is below 1e-05 s⁻¹. Also, in the data set with glucosamine-6-phosphate [4], the “self-cleavage kobs at 2500 uM GlcN6P” value is below 1e-05 s⁻¹. In addition, in the data set with glucosamine-6-phosphate [5], the “self-cleavage kobs at 10000 uM GlcN6P” value is below 1e-05 s⁻¹.
Take U49A G63A: the “self-cleavage kobs at 40 uM GlcN6P” value in the data set with glucosamine-6-phosphate [1] is below 1e-05 s⁻¹. Further, the “self-cleavage kobs at 640 uM GlcN6P” value in the data set with glucosamine-6-phosphate [2] was below 1e-05 s⁻¹. The “self-cleavage kobs at 2500 uM GlcN6P” value with glucosamine-6-phosphate [4] is below 1e-05 s⁻¹. Moreover, in the data set with glucosamine-6-phosphate [5], the “self-cleavage kobs at 10000 uM GlcN6P” value is below 1e-05 s⁻¹.
